# This is one part of the list. At the low end of the ranking the order means little.
# Target: SIX1 homeodomain (reference allele) (UniProt Q15475)
# Assay: universal protein binding microarray
# Settings: Universal all-10-mer PBM (8x60K, AMADID 030236), 300 nM GST-tagged protein, Alexa Fluor 488 anti-GST; buffer, salt, pH and temperature not stated; high values mean tight binding; most listed sequences are background and not binding sites; double strand, one strand shown
row,Sequence,binding signal
1,AGTCAGGG,-0.146 E-score
2,AACGGCCG,-0.245 E-score
3,CTAAGTAG,-0.0326 E-score
4,CGCATCAG,0.0639 E-score
5,ACAGCATC,-0.152 E-score
6,CCTGATGA,0.0265 E-score
7,CTGTTGGC,-0.0951 E-score
8,GGATACGA,0.36 E-score
9,ACACGGGG,0.148 E-score
10,TGAACTAA,-0.115 E-score
11,GGAGATCA,0.386 E-score
12,AGCCTAGG,-0.138 E-score
13,GAGAAGAC,0.0224 E-score
14,AGGCTATC,0.329 E-score
15,CCTGCGGA,0.102 E-score
16,ATCCGGAC,0.24 E-score
17,AAGGGCTG,-0.205 E-score
18,CATGTTGA,0.214 E-score
19,TAGAGGAA,0.0565 E-score
20,AACCGCAG,-0.0717 E-score
21,AAACGTAG,-0.0936 E-score
22,AGCAGTTC,-0.0895 E-score
23,ATATAGGA,0.281 E-score
24,ACGGCTGC,-0.0906 E-score
25,CGGGAGAC,-0.0662 E-score

row,Sequence,binding signal
1,GCAAACTA,-0.0166 E-score
2,CGGACGTC,-0.14 E-score
3,TAGTCAAA,-0.0622 E-score
4,AGGGGGGA,0.206 E-score
5,GCGCCAGC,-0.209 E-score
6,CACGTTGA,-0.0354 E-score
7,GAACGCGA,-0.0318 E-score
8,GTAGCGAA,-0.00606 E-score
9,AGTGTACC,0.16 E-score
10,TGAAAGCA,-0.112 E-score
11,ACCGTGTG,-0.01 E-score
12,ATTACTCG,-0.0411 E-score
13,ATCCTCCG,0.324 E-score
14,GGCCGGCA,-0.155 E-score
15,CGCGCACG,-0.0928 E-score
16,ACTTCGGG,-0.0525 E-score
17,GACCCGTC,-0.0551 E-score
18,CGTCGGGA,0.0309 E-score
19,CGACTGAG,-0.196 E-score
20,ACAAACTG,-0.186 E-score
21,AAGACGCC,-0.00505 E-score
22,CGGACCCG,-0.128 E-score
23,ATACTGGA,0.325 E-score
24,CGGGAGGA,-0.0903 E-score
25,CCATACTA,0.0086 E-score

row,Sequence,binding signal
1,GTTCCGCA,-0.0215 E-score
2,ATCCTGCG,0.142 E-score
3,CCAATGAG,-0.0358 E-score
4,CTAAACCC,0.14 E-score
5,CGTCTTCA,0.0171 E-score
6,ACCTTATC,0.143 E-score
7,TAAAGCCA,-0.0996 E-score
8,CCCCAATA,0.0977 E-score
9,AGTTAGGC,-0.289 E-score
10,AAGCCTGA,0.0668 E-score
11,ATATACTC,0.354 E-score
12,AACACGCA,-0.0659 E-score
13,ACCAATCG,-0.0164 E-score
14,CTGTTGAC,-0.352 E-score
15,CAACCAGA,-0.0279 E-score
16,ATCACGAC,0.18 E-score
17,GAGCCACA,-0.0994 E-score
18,AACGCTGC,-0.204 E-score
19,GACGCCCC,0.0241 E-score
20,TCAGTGCA,-0.136 E-score
21,ATGCAGAC,-0.0038 E-score
22,TGACAGAA,-0.13 E-score
23,CCGTGGAC,-0.106 E-score
24,ACAGATAT,0.356 E-score
25,AGCAACAA,-0.139 E-score

row,Sequence,binding signal
1,CCAGCAAC,-0.128 E-score
2,CAATGCCC,-0.0333 E-score
3,ATCGTAAC,0.215 E-score
4,AAACCGTT,-0.0723 E-score
5,AAGCTTAG,-0.0745 E-score
6,AACTCTTG,-0.0598 E-score
7,ACGATCCT,0.347 E-score
8,ATCCGGCG,0.345 E-score
9,CCCTAGCG,-0.224 E-score
10,CTCTTTTC,-0.138 E-score
11,GCATAAAA,0.00178 E-score
12,ATCCTTTG,0.204 E-score
13,GCCTAGAC,-0.124 E-score
14,ATGCGTTC,0.0554 E-score
15,CAAAATTA,-0.1 E-score
16,AGCCTGCA,-0.108 E-score
17,CATACTAC,0.0535 E-score
18,ACATTACT,-0.188 E-score
19,CTGATGCC,0.123 E-score
20,AAGAATGA,0.0726 E-score
21,ATAGTTCG,-0.0689 E-score
22,CCGCAGAC,-0.154 E-score
23,AAATGCAC,-0.222 E-score
24,CCAAAGAA,-0.182 E-score
25,CTATCGAC,0.0705 E-score

row,Sequence,binding signal
1,GTTATATA,0.145 E-score
2,GAAATGGA,-0.162 E-score
3,GCACGTCC,-0.131 E-score
4,ACGGTCAT,-0.0176 E-score
5,CATGCCAA,-0.124 E-score
6,AGCTCATG,0.0544 E-score
7,GGTACACA,-0.128 E-score
8,ACGGCCGT,-0.149 E-score
9,CGGAGCGA,-0.124 E-score
10,CCTCGGAC,-0.0969 E-score
11,ATGTACAT,-0.152 E-score
12,CGGAGGTC,-0.112 E-score
13,GGCGAGGA,-0.076 E-score
14,GAACGGGA,-0.0934 E-score
15,GTGGAATA,0.094 E-score
16,AAAGGACA,-0.0465 E-score
17,ATTAAAAC,0.131 E-score
18,AATTCGGA,0.047 E-score
19,AAGCGCCT,-0.145 E-score
20,CACATCTC,-0.0303 E-score
21,AACCCGAG,0.18 E-score
22,CCCTGGCG,-0.0981 E-score
23,CTCTCGAC,-0.0533 E-score
24,CAGTGCAC,-0.107 E-score
25,ATGAGACA,0.23 E-score

row,Sequence,binding signal
1,CACAACAC,-0.0506 E-score
2,ATTCCAGA,0.0677 E-score
3,AGTTGGAT,0.216 E-score
4,AGATGTGG,-0.0918 E-score
5,ACAATGCG,-0.0263 E-score
6,TCCTTGAA,-0.181 E-score
7,GGTGGGAC,-0.186 E-score
8,ACCCCAAC,0.101 E-score
9,GCTATCGA,0.253 E-score
10,TCGTACAA,-0.187 E-score
11,TCTAACCA,-0.12 E-score
12,GCACGGAA,-0.244 E-score
13,CCGGTTGC,0.0289 E-score
14,GAAAATGC,-0.333 E-score
15,GACGGATC,0.358 E-score
16,AGGAGTGC,-0.0354 E-score
17,AAGGAGGG,-0.000575 E-score
18,CCAGAATA,0.142 E-score
19,GCTGCGAA,-0.0649 E-score
20,AACCCTTC,0.0703 E-score
21,CGTAGTAC,-0.0844 E-score
22,AGATAATA,0.245 E-score
23,ACCGGTAT,0.37 E-score
24,CAAGTAGA,0.0844 E-score
25,AGTAACTC,-0.0483 E-score

row,Sequence,binding signal
1,GGCCAGGA,-0.185 E-score
2,GATGCATC,-0.0464 E-score
3,CAGGATCC,0.354 E-score
4,ACTTCCGG,-0.187 E-score
5,ACCGCACT,-0.0203 E-score
6,ATATGGAC,0.173 E-score
7,ATTCAACC,0.0227 E-score
8,GCCTTTCA,0.0386 E-score
9,CTTGGACC,-0.0685 E-score
10,ACCCGCTA,-0.0737 E-score
11,GAATATAA,-0.035 E-score
12,CAAAGATG,-0.196 E-score
13,AACAAGCA,-0.148 E-score
14,GGTTCGAC,0.0197 E-score
15,AATAGAGG,-0.0626 E-score
16,AGCCTCGC,-0.019 E-score
17,GATGTATA,0.306 E-score
18,TAACCCGA,0.213 E-score
19,CGGAATTA,-0.103 E-score
20,CAGTTTGG,-0.104 E-score
21,AACAAGGC,-0.27 E-score
22,AAATTATG,-0.21 E-score
